# Inconclusive results, whose numbers are uncertain, are shown with a selection of clear calls. For some of these results: Where the call is inconclusive, the potency comes from a doubtful curve fit. Activity calls are given as the source filed them. The call rests on the fitted dose curve; in most records, active means well fitted curve in the direction sought with a large enough effect; inconclusive means small, poorly fitted or top-dose-only effect, or another doubt; inactive means no such curve, though single readings can be large; an effect the other way counts as inactive or inconclusive.
# Key:
# [1] = Viability qHTS for spleen associated tyrosine kinase inhibitor (SYKi) naive MV4-11 cells (AID 1963823); conditions: MV4-11 AML viability, CellTiter-Glo luminescence, 72 h; viability (% of control): at 45 µM (top of the series); further: potency means the concentration at half of the fitted maximal effect; nearly all actives have a fitted effect of over 40% in size
# Summary of the method: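 Read-out: CellTiter-Glo luminescence. Exposure: 72 hr, 37 C, 5% CO2, 95% humidity. Cells: MV4-11 without SYK inhibitor history, 500/well, qHTS format.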
# [2] = Viability qHTS for spleen associated tyrosine kinase inhibitor (SYKi) drug resistant MV4-11 cells (AID 1963824); further: potency means the concentration at half of the fitted maximal effect; nearly all actives have a fitted effect of over 35% in size
# Summary of the method: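 SYK inhibitor-resistant MV4-11 AML cells, 500 per well, added to predispensed compounds and incubated 72 hr at 37 C, 5% CO2. Viability measured by CellTiter-Glo luminescence after 10 min at room temperature.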
# [3] = Quantitative highthroughput screen to assess conditional lethalithy of NOMO1 cells grown in RPMI1640 with untreated serum (RPMI+s) (AID 1963876); conditions: NOMO1 AML cells in RPMI+serum, CellTiter-Glo viability, 48 h; viability: at 45.8 µM (top of the series); further: nearly all actives have a fitted effect of over 35% in size; further: potency means the concentration at half of the fitted maximal effect;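 on Viability: 100% = DMSO wells and 0% = empty wells without cells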
# Summary of the method: (§1)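 Each medium arm—HPLM with 10% dialyzed FBS, or RPMI1640 with 5 mM glucose and 10% untreated or dialyzed FBS—was screened against an 11-point, 3-fold compound titration for 48 h at 37 °C, with CellTiter-Glo luminescence as endpoint.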
# [4] = Quantitative highthroughput screen to assess conditional lethalithy of NOMO1 cells grown in RPMI1640 with dialyzed fetal bovine serum (RPMI+ds) (AID 1963877); further: nearly all actives have a fitted effect of over 30% in size; further: potency means the concentration at half of the fitted maximal effect;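 on Viability: 100% = DMSO control wells and 0% = empty wells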
# Summary of the method: as §1
# [5] = Quantitative highthroughput screen to assess conditional lethalithy of SEM cells grown in Human Plasma-Like Medium with dialyzed fetal bovine serum (HPLM+ds) (AID 1963882); further: nearly all actives have a fitted effect of over 35% in size; further: potency means the concentration at half of the fitted maximal effect
# Summary of the method: as §1
# [6] = Quantitative highthroughput screen to assess conditional lethalithy of SEM cells grown in RPMI1640 with dialyzed fetal bovine serum (RPMI+ds) (AID 1963884); conditions: SEM B-ALL cells, RPMI+dialyzed FBS, CellTiter-Glo viability, 48 h; viability: at 45.8 µM (top of the series); further: nearly all actives have a fitted effect of over 35% in size; further: potency means the concentration at half of the fitted maximal effect;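 on Viability: 100% = DMSO control wells and 0% = empty wells without cells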
# Summary of the method: as §1
# [7] = Cellular viability qHTS for adrenocortical cancer (ACC) cell line SW-13 (AID 1963989); conditions: SW-13 ACC cells viability, CellTiter-Glo, 48 h; activity (max response): hits give low values;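 further: cells grown in serum-free medium with ITS supplement; on the % scale 0 is the no-effect control and ±100 the full control effect; nearly all actives have a fitted effect of over 65% in size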
# Summary of the method: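 Compound titrations (up to 46 uM final, in DMSO) were applied to SW-13 cells for 48 h at 37C/5% CO2. Reading used CellTiter-Glo after 20 min at room temperature; fitted curves yielded IC50 and efficacy.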
# [8] = Quantitative highthroughput screen to assess conditional lethalithy of P12 Ichikawa cells grown in Human Plasma-Like Medium with dialyzed fetal bovine serum (HPLM+ds) (AID 1963879); conditions: Potency: viability
# Summary of the method: as §1
# [9] = Quantitative highthroughput screen to assess conditional lethalithy of SEM cells grown in RPMI1640 with unreated serum (RPMI+s) (AID 1963883); conditions: SEM B-ALL cells, CellTiter-Glo viability, 48 h; viability: at 45.8 µM (top of the series)
# Summary of the method: as §1
# [10] = Cellular viability qHTS for adrenocortical cancer (ACC) cell line NCI-H295R (AID 1963990); conditions: CellTiter-Glo ATP luminescence, 48 h; activity change, negative = viability loss: at 46.1 µM (top of the series); further: potency means the concentration at half of the fitted maximal effect; nearly all actives have a fitted effect of over 60% in size
# Summary of the method: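 Readout: CellTiter-Glo luminescence, 20 min RT. Exposure: 48 h, 37C/5% CO2. Cells: NCI-H295R, ITS-DMEM serum-free. Range: up to 46 uM. Analysis: 4PL fit, IC50 plus efficacy.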
# [11] = Quantitative highthroughput screen to assess conditional lethalithy of P12 Ichikawa cells grown in RPMI1640 with dialyzed fetal bovine serum (RPMI+ds) (AID 1963880); conditions: Potency: P12-Ichikawa viability
# Summary of the method: as §1
# [12] = Quantitative highthroughput screen to assess conditional lethalithy of P12 Ichikawa cells grown in RPMI1640 with untreated serum (RPMI+s) (AID 1963881); conditions: Potency: viability; further: nearly all actives have a fitted effect of over 35% in size; further: potency means the concentration at half of the fitted maximal effect;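 on Viability: 100% = DMSO wells and 0% = empty wells without cells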
# Summary of the method: as §1
# Tags describe the fitted curve by direction and shape.
Structure (SMILES),Potency [1],Potency [2],Potency [3],Potency [4],Potency [5],Potency [6],activity (max response) [7],Potency [8],Potency [9],Potency [10],Potency [11],Potency [12]
Cc1cc(O)c2c(c1)C(=O)c1cc(O)cc(O)c1C2=O,"inconclusive: 20.9 µM [cytotoxic, partial curve]","inconclusive: 20.9 µM [cytotoxic, partial curve]",inactive,inactive,inactive,inactive,inactive: -8.42%,,,,,
C[C@H]1COC2=C1C(=O)C(=O)c1c2ccc2c1CCCC2(C)C,active: 5.9 µM,active: 5.25 µM,inactive,inactive,"inconclusive: 18.7 µM [cytotoxic, partial curve]",active: 13.2 µM,,"inconclusive: 20.9 µM [cytotoxic, partial curve, poor fit]",active: 2.35 µM,"inconclusive: 20 µM [cytotoxic, partial curve, poor fit]",,
COc1ccc(S(=O)(=O)Nc2cccnc2Nc2ccc(O)cc2)cc1,active: 0.934 µM,active: 0.833 µM,"inconclusive: 2.35 µM [cytotoxic, full curve]","inconclusive: 5.26 µM [cytotoxic, full curve]",,"inconclusive: 3.72 µM [cytotoxic, full curve]",,,"inconclusive: 4.18 µM [cytotoxic, full curve]","inconclusive: 2.82 µM [cytotoxic, full curve]","inconclusive: 3.72 µM [cytotoxic, full curve]",active: 3.32 µM
CC1CCN(c2cc(N3CCN(C)CC3)ccc2NC(=O)c2cc(C#N)c[nH]2)CC1,active: 5.25 µM,active: 11.8 µM,inactive,inactive,inactive,,,,,,,inactive

# From PubChem BioAssay (NCATS)
